Laboratory results: PubChem BioAssay AID624417 (National Center for Advancing Translational Sciences (NCATS), 2012)
About 6,400 (1.6%) of roughly 410,000 compounds were called active. The shares of active, inactive and inconclusive entries below differ from those in the screen. Calls come from the whole dose curve; as a rule, active = well fitted inhibition curve with a large enough effect; inconclusive = small, poorly fitted or top-dose-only effect; inactive = no such curve, though single readings can be large or run the other way. A potency beside an inconclusive call is a rough fit, not a confirmed value.

Each molecule was assayed against Glucagon-like peptide 1 receptor (Homo sapiens) (UniProt P43220) (assay: qHTS of GLP-1 Receptor Inverse Agonists (Inhibition Mode)). Conditions: HEK293 GLP-1R CRE-luciferase, luminescence, 24 h, GLP-1R form is constitutively active; series mostly up to 38.3 µM.
Method in brief: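 HEK293 cells stably co-expressing constitutively active GLP-1R and a cAMP-responsive luciferase reporter were seeded in DMEM with 10% Nu serum, given compounds after 12 h, and incubated 24 h at 37 deg C. Luminescence was then read.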
Note: nearly all actives have a fitted effect of over 55% in size.
Potency is the fitted concentration of half-maximal effect; tags give direction and shape of the fitted curve.

UniProt P43220, sequence (P43220 whole entry, looked up): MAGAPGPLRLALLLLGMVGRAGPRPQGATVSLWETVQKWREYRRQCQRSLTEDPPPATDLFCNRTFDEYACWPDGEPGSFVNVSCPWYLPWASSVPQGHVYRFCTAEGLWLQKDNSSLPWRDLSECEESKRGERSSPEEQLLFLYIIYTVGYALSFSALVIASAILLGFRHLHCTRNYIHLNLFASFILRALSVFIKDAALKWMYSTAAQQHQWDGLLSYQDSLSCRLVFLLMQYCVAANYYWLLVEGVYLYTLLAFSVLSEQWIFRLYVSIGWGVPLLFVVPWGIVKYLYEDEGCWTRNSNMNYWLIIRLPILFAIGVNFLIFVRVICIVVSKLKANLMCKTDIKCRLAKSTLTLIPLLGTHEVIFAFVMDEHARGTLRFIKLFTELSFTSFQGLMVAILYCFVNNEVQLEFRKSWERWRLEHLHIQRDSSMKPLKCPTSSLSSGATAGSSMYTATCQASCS

Potency, inactive:
CCOC(=O)c1ccc(-n2c(-c3ccc(C)cc3)c(C)n3c4c(=O)n(C)c(=O)n(C)c4nc23)cc1
O=C(CNC(=O)c1ccc(Br)o1)NCC(=O)OCc1ccccc1
CC(=O)OCC1=C(C(=O)O)N2C(=O)[C@@H](NC(=O)Cc3cccs3)[C@H]2SC1
COc1cc(NC(=O)[C@@H]2O[C@H](CO)[C@@H](O)[C@H]2O)cc(OC)c1OC
CCCC(=O)Nc1ccc2c(c1)C(=O)NC2=O
CCc1ccccc1NC(=O)NCCN1CCCCC1

Potency, inconclusive:
COc1cc(CN2CCN(Cc3ccc(SC)cc3)CC2)cc(OC)c1O 5.62 µM [inhibitor, partial curve, poor fit]
CCCCOCCCNC(=O)C[C@@H]1C[C@@]2(C(=O)OCC)CCCC=C2N(Cc2ccc(Cl)cc2Cl)C1=O 28.2 µM [inhibitor, single point]
CC1CCN(C(=O)c2scc3c2OCCO3)CC1 22.4 µM [inhibitor, single point]
Cc1ccc(Cl)cc1NC(C#N)c1ccccc1 (stereo not given) 12.6 µM [inhibitor, single point]
COc1ccccc1NC(=O)C/C(C)=N/NC(=O)C12CC3CC(CC(C3)C1)C2 10 µM [inhibitor, partial curve, poor fit]
CCOc1ccc(N2C(=O)c3n[nH]c(-c4cccs4)c3C2c2cccc(F)c2)cc1 (stereo not given) 11.2 µM [inhibitor, partial curve, poor fit]
COc1ccc(-n2ncc3c2CC(C)(C)CC3NC(=O)CSc2ccccn2)cc1 (stereo not given) 12.6 µM [inhibitor, single point]
Cc1ccc(CC2(C)C(=O)Nc3ccc(OC(F)(F)F)cc32)cc1 (stereo not given) 10 µM [inhibitor, partial curve, poor fit]
O=C(CCSCc1cccc(Cl)c1)NCc1ccc(F)cc1Cl 28.2 µM [inhibitor, single point]
COc1ccccc1NS(=O)(=O)c1ccc(C(=O)NCC(c2ccccc2OC)N2CCCC2)cc1 (stereo not given) 28.2 µM [inhibitor, single point]
Cc1ccc(C2CCN(C(=S)Nc3cccc(C)c3)C2)cc1 (stereo not given) 31.6 µM [inhibitor, single point]
COc1cccc(N(C(=O)c2ccco2)C(C(=O)NC2CCCC2)c2ccc(N(C)C)cc2)c1 (stereo not given) 28.2 µM [inhibitor, single point]
Cc1nc(N2CCN(C)CC2)c2c(C)c(C(=O)Nc3ccc(C)c(F)c3)sc2n1 2 µM [inhibitor, partial curve, poor fit]
CCCCN(C=O)c1c(CC)nc2c(OCc3ccc(C(F)(F)F)cc3)cccn12 10 µM [inhibitor, partial curve, poor fit]
COc1cccc(-c2oc3c(c2-c2ccc(OC)nc2)C(O)CCC3)c1 (stereo not given) 28.2 µM [inhibitor, single point]
Cc1cccc(/C=N/NC(=O)c2ccc(NC(=O)c3ccc(Cl)cc3)cc2)n1 28.2 µM [inhibitor, single point]
CCOC(=O)c1c(C)[nH]c(C)c1S(=O)(=O)NCC1CCN(Cc2cccc(Cl)c2)CC1 31.6 µM [inhibitor, single point]
COc1ccccc1C(CNC(=O)c1cccc(S(=O)(=O)Nc2ccc(F)cc2)c1)N1CCCC1 (stereo not given) 11.2 µM [inhibitor, partial curve, poor fit]
CC(C)(C)OC(=O)N[C@@H](CCCCNC(=O)OCc1ccccc1)c1nnc([C@H](CCCCNC(=O)OCc2ccccc2)NC(=O)OC(C)(C)C)o1 1 µM [inhibitor, full curve, poor fit]
O=C(NC1CCCC1)C(c1ccc(F)cc1)N(Cc1ccccc1)C(=O)c1csnn1 (stereo not given) 14.1 µM [inhibitor, single point]
CCc1nc2c(OCc3ccc(F)c(F)c3)cccn2c1N(C)C(=O)c1cccs1 14.1 µM [inhibitor, single point]
COc1ccccc1N1CCN(C(=S)NC(=O)/C=C/c2ccc(F)cc2)CC1 28.2 µM [inhibitor, single point]
COc1ccc(/C=N/NC(=O)c2cc(C)on2)c2ccccc12 10 µM [inhibitor, partial curve, poor fit]
CC(C)CNC(=O)Nc1ccc(F)c(Cl)c1 7.94 µM [inhibitor, partial curve, poor fit]
O=C1N/C(=N/Nc2ccccc2)S/C1=C\c1ccccc1 7.94 µM [inhibitor, partial curve, poor fit]
CC1Cn2c(C(=O)NCc3cccc(Br)c3)cc3cccc(c32)S1 (stereo not given) 28.2 µM [inhibitor, single point]
CC(C)(C)C1CCc2nc(NC(=O)c3ccc([N+](=O)[O-])cc3)sc2C1 (stereo not given) 0.562 µM [inhibitor, full curve, poor fit]
Cc1ccc(C(=O)c2cc3ccccc3o2)cc1C 28.2 µM [inhibitor, single point]
Cc1cccc(N2CCN(C(=O)CCC(=O)N3CC(C)Oc4ccc(C)cc43)CC2C)c1 (stereo not given) 10 µM [inhibitor, partial curve, poor fit]
Cc1cc(-c2ccccc2)nc(-c2ccccc2)c1C 12.6 µM [inhibitor, partial curve, poor fit]
Cc1cccc(-c2nc3c(cnn3-c3ccccc3)c(=O)n2-c2ccc(Br)cc2)c1 15.8 µM [inhibitor, single point]

Potency, active:
CC(C)c1ccc(NC(=O)C(c2ccccc2)N(C)C(=O)CCc2c[nH]c3ccccc23)cc1 (stereo not given) 10 µM
CC1=C(C(=O)NC(C)CCc2ccccc2)C2(CCC(C)CC2)OC1=O (stereo not given) 8.91 µM
Cc1cc(-n2c(C)cc(C(=O)CCl)c2C)no1 10 µM
